About 64,000 (15%) of roughly 420,000 compounds were called active. This list was built around the results that the source calls inconclusive (neither active nor inactive); the mix of calls is not that of the screen. The call rests on the fitted dose curve; in most records, active means well fitted inhibition curve with a large enough effect; inconclusive means small, poorly fitted or top-dose-only effect; inactive means flat fitted curve, though single readings scatter. Potencies of inconclusive entries are left out as doubtful fits.
Test: qHTS for Inhibitors of human tyrosyl-DNA phosphodiesterase 1 (TDP1): qHTS in cells in absence of CPT; further: nearly all actives have a fitted effect of over 55% in size
Details: DT40 Tdp1-/- hTDP1 cells, no CPT, ATP luminescence, 48 h; activity change, negative = growth inhibition: at 46.2 µM (top of the series)
Outline: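 No-CPT arm: Tdp1-/-;hTDP1 DT40 cells (400/well) plus compounds, incubated ≥48 hr at 37 °C. Readout CellTiter-Glo luminescence.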
For `COc1cccc(C(=O)Nc2ccccc2C(=O)NCC2CCCO2)c1` (stereo unspecified), the Potency was inconclusive [inhibitor, partial curve]. For `CCCCC[C@H](O)/C=C/[C@@H]1[C@@H](C/C=C\CCCC(=O)OC)[C@@H](O)C[C@H]1O`, the Potency was inconclusive [inhibitor, partial curve]. For `N#Cc1ccc(S(=O)(=O)N2CCC(Oc3cccc(C(F)(F)F)c3)CC2)cc1`, the Potency was inconclusive [inhibitor, single point]. For `Cc1ccc(S(=O)(=O)N2CCCCC2)cc1NC(=O)Cn1ccsc1=N`, the Potency was inconclusive [inhibitor, single point]. In the case of `CN(NS(=O)(=O)c1ccc(Br)cc1)c1nc(C(F)(F)F)nc2ccccc12`, the Potency is reported as inconclusive [inhibitor, single point]. In the case of `Nn1c(SCC(=O)NCc2ccccc2)nnc1C1CC1`, the “activity change, negative = growth inhibition” value is reported as inactive: 5.63%. With `COc1cc(OC)c(OC)cc1CN1CCc2nc(Nc3ccc4c(c3)OCCO4)ncc2C1` the Potency was inconclusive [inhibitor, single point]. In the case of `CCN(CC)C(=O)c1c(-c2ccccc2)oc2ccc(OC)cc12`, the Potency is reported as inconclusive [inhibitor, single point]. In the case of `COc1ccc(CNC(=O)C(=O)Nc2c3c(nn2-c2ccccc2)CSC3)cc1`, the Potency is reported as inconclusive [inhibitor, partial curve]. For `O=C(C[N+]1(CC#Cc2ccccc2)CCCCC1)c1ccccc1`, the Potency was active: 20.6 µM. With `O=S(=O)(c1cccc2nsnc12)N1CCN(c2ccccc2F)CC1` the activity change, negative = growth inhibition was inconclusive: -34.1% [inhibitor]. In the case of `CC(C)c1ccc(OCC(=O)Nc2cc(-c3ccccc3)no2)cc1`, the “activity change, negative = growth inhibition” value is reported as inactive: -25.5%. With `Cc1nnc(Sc2cc(C(=O)NC3CC3)c3ccccc3n2)s1` the Potency was active: 7.31 µM. In the case of `CN(CC(=O)Nc1ccc(F)c(F)c1)S(=O)(=O)c1cccc2nsnc12`, the Potency is reported as inconclusive [inhibitor, partial curve]. For `CCCCN(CC)CCNC(=O)c1cc2cc3ccc(Cl)cc3nc2o1`, the Potency was inconclusive [inhibitor, single point]. With `CCCCN(Cc1cc2ccccc2[nH]c1=O)C(=O)c1ccccn1` the “activity change, negative = growth inhibition” value was inactive: -11.1%. In the case of `Cc1cc(C)cc(NC(=O)Cn2nc(N3CCN(c4ccccc4)CC3)ccc2=O)c1`, the Potency is reported as inconclusive [inhibitor, partial curve]. With `COC(=O)C1=C(COc2ccc(C=O)cc2OC)NC(=O)NC1c1cc(C)ccc1C` (stereo unspecified) the Potency was active: 14.6 µM. For `Brc1cccc(-c2n[nH]c(-c3ccccc3)n2)c1`, the Potency was active: 23.1 µM. In the case of `COc1ccc(NS(=O)(=O)c2cccc(NC(=O)NCCCl)c2)cc1`, the “activity change, negative = growth inhibition” value is reported as inactive: -29.4%. For `CC(=O)NCCc1ccc(S(=O)(=O)Nc2ccc(NC(=O)c3ccc(F)cc3)cc2)cc1`, the “activity change, negative = growth inhibition” value was inactive: -9.87%. In the case of `COc1cc(CN(C(=O)c2ccccc2Br)c2ccccn2)cc(OC)c1OC`, the Potency is reported as active: 13 µM. With `CC(=O)Nc1ccc(S(=O)(=O)N2CCN(c3nc(NC4CCCC4)c4ccccc4n3)CC2)cc1` the Potency was inconclusive [inhibitor, single point]. With `c1csc(-c2nc(-c3ccncc3)no2)c1` the “activity change, negative = growth inhibition” value was inactive: -17.5%. For `CN(C)P(=O)(Nc1cccc2ccccc12)Nc1cccc2ccccc12`, the Potency was active: 9.2 µM. In the case of `CNc1c(NS(=O)(=O)c2ccc(F)c(Cl)c2)c(=O)oc2ccccc12`, the Potency is reported as inconclusive [inhibitor, single point]. With `CCOc1nc(Nc2ccc(OC)c(Cl)c2)nc(OCC)n1` the Potency was inconclusive [inhibitor, single point]. For `COc1ccc2c(c1)c(=O)c(S(=O)(=O)c1ccc(Cl)cc1)cn2Cc1cc(C)ccc1C`, the Potency was inconclusive [inhibitor, partial curve]. In the case of `C=CCn1c(SCC(=O)NCC2CCCO2)nc2sc(CC)cc2c1=O` (stereo unspecified), the Potency is reported as inconclusive [inhibitor, single point]. With `CCC(=O)Nc1ccc(NC(=O)c2ccc3ccccc3c2)cc1` the “activity change, negative = growth inhibition” value was inactive: -15%. With `CC1(c2ccccc2)NC(=O)N(CC(=O)N2CCc3ccccc32)C1=O` (stereo unspecified) the “activity change, negative = growth inhibition” value was inactive: 5.41%. In the case of `Cc1cc(NC(=O)CCC(=O)N(CC(=O)NC2CCCC2)c2ccc3c(c2)OCCO3)no1`, the Potency is reported as inconclusive [inhibitor, single point]. For `Cc1ccc(C(=O)N2CCN(Cc3ccc4c(c3)OCO4)CC2)c(Cl)c1`, the Potency was active: 16.4 µM. For `C/C(=N\OCC(=O)NCC(F)(F)F)c1cc2ccccc2o1`, the Potency was inconclusive [inhibitor, full curve, poor fit]. For `CCc1ccc(NC(=O)c2cccc(N3CCCS3(=O)=O)c2)cc1`, the Potency was inconclusive [inhibitor, single point]. For `Cc1cc(C)cc(NC(=O)CSc2nc3c(oc4ccccc43)c(=O)n2-c2ccccc2)c1`, the Potency was inconclusive [inhibitor, single point]. In the case of `Cc1nc(N2CCC(C)CC2)c2c(C)c(C(=O)Nc3cccc(C(F)(F)F)c3)sc2n1`, the Potency is reported as inconclusive [inhibitor, single point]. In the case of `CCN(CC)C(=O)c1sc2c(c1C)c(=O)n(CCc1ccccc1)c(=O)n2Cc1ccc(C)cc1`, the Potency is reported as inconclusive [inhibitor, single point]. For `COc1cccc(Nc2nc(-c3cccc(N4C(=O)c5ccccc5C4=O)c3)cs2)c1`, the Potency was inconclusive [inhibitor, single point]. In the case of `COc1ccc(CCNC(=O)Cc2ccc(OCc3ccccc3)c(OC)c2[N+](=O)[O-])cc1OCc1ccccc1`, the Potency is reported as active: 8.2 µM. For `CN(CCCC(=O)Nc1ccncc1)S(=O)(=O)c1ccc(Cl)cc1`, the Potency was active: 23.1 µM. In the case of `COc1cc(NS(=O)(=O)c2cccc3nsnc23)cc(OC)c1`, the Potency is reported as inconclusive [inhibitor, single point]. With `O=C(O)c1ccc(-c2ccc(/C=C3\NC(=O)N(Cc4ccc(Cl)cc4)C3=O)o2)cc1Cl` the Potency was inconclusive [inhibitor, single point]. In the case of `COc1ccc(-n2ncc3c(NCc4cccs4)ncnc32)cc1`, the “activity change, negative = growth inhibition” value is reported as inactive: -23.2%. In the case of `CC(C(=O)NC1CCCc2ccccc21)N1CCN(c2ccc(F)cc2)CC1` (stereo unspecified), the Potency is reported as active: 16.4 µM. With `COc1ccc(C(CNC(=O)c2cccc(NC(=O)c3cccs3)c2)N2CCCC2)cc1` (stereo unspecified) the Potency was inconclusive [inhibitor, single point]. In the case of `CCOc1cc2c(cc1OCC)C(CC(=O)OC)N(C(=O)Nc1cc(OC)ccc1OC)CC2` (stereo unspecified), the Potency is reported as active: 14.6 µM. In the case of `COc1ccc(/C=C2\C(=O)NCC(=O)N2C)cc1`, the Potency is reported as inconclusive [inhibitor, single point]. With `COc1ccc(Cc2nc(C(=O)Nc3ccc(Cl)cc3)cs2)cc1` the “activity change, negative = growth inhibition” value was inactive: -25.7%. With `CC(C)CC(NC(=O)C1CCC(C)CC1)C(=O)N1CCN(c2ccccn2)CC1` (stereo unspecified) the Potency was active: 23.1 µM. In the case of `O=[N+]([O-])c1cccc(S(=O)(=O)Nc2nc3ccccc3nc2Nc2cccc(S(=O)(=O)N3CCCCC3)c2)c1`, the Potency is reported as inconclusive [inhibitor, single point]. With `C=CCCCN(Cc1ccccc1)S(=O)(=O)c1ccccc1Br` the Potency was inconclusive [inhibitor, single point]. For `COc1cc(C(C[N+](=O)[O-])c2c(C)[nH]c3ccccc23)cc(OC)c1OC` (stereo unspecified), the Potency was inconclusive [inhibitor, single point]. In the case of `COc1ccccc1NC(=O)c1cccc2c(Br)cccc12`, the Potency is reported as inconclusive [inhibitor, single point]. With `CCOC(=O)c1sc(NC(=S)NC(=O)c2ccccc2Cl)c(C(=O)OCC)c1C` the Potency was active: 25.9 µM. For `CC(CCc1ccccn1)(CCc1ccccn1)C(=O)c1ccccc1`, the Potency was inconclusive [inhibitor, single point]. With `CN(Cc1ccco1)c1nc(-c2cccnc2)nc2ccccc12` the Potency was inconclusive [inhibitor, single point]. For `Cn1c(C(C#N)C(=O)Cc2cccc3ccccc23)nc2ccccc21` (stereo unspecified), the Potency was inconclusive [inhibitor, single point]. For `CC1(CC(=O)N/N=C/c2cc(Br)c(O)cc2O)OCCO1`, the Potency was inconclusive [inhibitor, partial curve]. With `Cc1ccc(C)c(-c2nnc(NC(=O)COc3ccccc3)o2)c1` the Potency was inconclusive [inhibitor, single point]. In the case of `Cc1ccc(-n2nnnc2SCC(=O)c2c(N)n(CC(C)C)c(=O)n(C)c2=O)cc1`, the “activity change, negative = growth inhibition” value is reported as inactive: -6.45%. With `COCc1nnc(NC(=O)CS(=O)(=O)c2ccc(C)cc2)s1` the “activity change, negative = growth inhibition” value was inactive: -11.4%. In the case of `Cc1cc(O)ccc1N=Cc1c(C(F)(F)F)[nH][nH]c1=O`, the Potency is reported as active: 10.3 µM. For `CC(C)Oc1ccc(S(=O)(=O)N2CCOCC2)cc1NC(=O)Cc1c(F)cccc1Cl`, the Potency was inconclusive [inhibitor, single point]. In the case of `Nc1ccc2c3c(cccc13)CC2`, the “activity change, negative = growth inhibition” value is reported as inactive: -26.5%. For `CCn1ncc(/C=N\NC(=O)c2ccc3c(c2)c(C)c(C)n3Cc2ccccc2)c1C`, the Potency was inconclusive [inhibitor, single point]. With `COCCCn1c(SCC(=O)NC2CCCC2)nnc1-c1ccco1` the “activity change, negative = growth inhibition” value was inactive: -12%. In the case of `CCN(CC)C(=O)CSC(Nc1cccc(F)c1)=C(C#N)C#N`, the Potency is reported as inconclusive [inhibitor, single point]. With `C(=N\N=C\c1ccccn1)/c1ccccn1` the “activity change, negative = growth inhibition” value was inactive: -5.29%. For `Cc1ccc(/C=N/NC(=O)CSc2nnc(-c3ccc(Cl)cc3)n2-c2ccc(Cl)cc2)o1`, the Potency was inconclusive [inhibitor, single point]. With `COc1ccc(NCc2cccn2-c2nnc(N3CCOCC3)s2)cc1OC` the Potency was inconclusive [inhibitor, single point].

Source: PubChem BioAssay AID686978 (National Center for Advancing Translational Sciences (NCATS), 2013)
On the % scale 0 is the no-effect control and ±100 the full control effect; potency means the concentration at half of the fitted maximal effect; tags describe the fitted curve by direction and shape.
